This passage reports TGI results from PubChem BioAssay (NCI).

Holding throughout (assay): growth of human tumour cells (NCI), 384-well format
The subject of experiment [1] is DU-145 prostate.
Experiment [2] concerns HOP-92 NSCLC.
For experiment [3], the system named is M14 melanoma.
Experiment [4] relates to MALME-3M melanoma.
For experiment [5], the system named is NCI-H460 NSCLC.
Experiment [6] deals with OVCAR-5 ovarian.
In experiment [7] the test system is SK-MEL-28 melanoma.
Experiment [8] relates to SK-OV-3 ovarian.
Experiment [9] concerns SN12C renal.
Experiment [10] concerns SNB-75 CNS.
The subject of experiment [11] is T-47D breast.

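At the TGI there is no net growth.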 Certain results were filed several times, with different values. This list holds those alone. There may be further records. Results that share an entry repeat one measurement in other runs, samples, wells, individuals or studies. What stands in brackets tells the records apart. A, B and so on number the origins entry by entry. Some results are limits rather than exact numbers.

As to `Oc1cccc(-c2nc(N3CCOCC3)c3oc4ncccc4c3n2)c1`, the TGI was 11.5 µM [sample A, 1 test] and 593 nM [sample B, 1 test] in experiment [1]; 408 nM [sample A, 1 test] and 16.5 µM [sample B, 1 test] in experiment [2]; > 100 µM [sample A, 1 test] and 2.42 µM [sample B, 1 test] in [3]; 330 nM [sample A, 1 test] and 10.1 µM [sample B, 1 test] in [4]; > 100 µM [sample A, 1 test] and 1.18 µM [sample B, 1 test] in [5]; > 100 µM [sample A, 1 test] and 6.68 µM [sample B, 1 test] in experiment [6]. In addition, the TGI in experiment [7] was 765 nM [sample A, 1 test] and > 100 µM [sample B, 1 test]; in experiment [8], 395 nM [sample A, 1 test] and 6.73 µM [sample B, 1 test]; in experiment [9] it was > 100 µM [sample A, 1 test] and 343 nM [sample B, 1 test]; in experiment [10], 242 nM [sample A, 1 test] and 11.4 µM [sample B, 1 test]; in experiment [11], 484 nM [sample A, 1 test] and 13.1 µM [sample B, 1 test].
